# Read-outs that look alike come from different tables or passages of the source.
# Assays:
# rmCA-IX = biological target: T1, rmCA-IX (Mus musculus, UniProt Q8VHB5); assay: Cross-reactivity determination by SPR; format: binding, murine; settings: 100 nM analyte
# T1 construct: purchased Sino Biologics Inc
# Method: CA proteins for the analyte injection were purchased from Sino Biologics Inc.; the proteins were reconstituted as recommended by the manufacturer and diluted to 100 nM in SPR running buffer for binding analysis.
# [1] = test system: native peptides covering the hCA-IX ECD PG domain; format: binding, human; parameters: key: −, no binding; +, binding; settings: PNL6 Aga2-HA-X-MYC; clone 15 A + B; Plasmid Ctrl, no peptide
# Method: (§1) The hCA-IX fragments covering the entire hCA-IX ECD (FIG. 13A) or the PG domain alone (FIG. 13B) were expressed as fusion proteins (Aga2-HA-(CA-IX)-MYC (pPNL6 vector) or (CA-IX)-Aga2-MYC (pPNL200 vector)) on the yeast cell surface. The YSD vectors (pPNL6 and pPNL200) were from The Pacific Northwest National Laboratory, USA. […] The binding of the mAb to yeast cells was performed using a whole yeast cell ELISA. […] The binding of mAb to denatured yeast cells was normalized to the anti-MYC signal. The ratio of normalized anti-CA-IX signals of each mAb on native versus denatured hCA-IX peptide was thus indicative of the conformational nature of the epitope. In the native hCA-IX experiments, the commercial M75 mAb was used as a positive control; the epitope of this mAb is known (Zavada et al., 2000) and is located in the hCA-IX PG domain.
# [2] = biological target: T2, native peptides covering the hCA-IX ECD PG domain (Homo sapiens, UniProt Q16790); format: binding; parameters: key: −, no binding; +, binding; settings: native PG domain, PNL6
# T2 construct: encompassing aa 37-140 of the native hCA-IX PG domain; expressed in transfected cells; host or cells: yeast cells (surface display)
# Method: as §1
# [3] = biological target: T3, native peptides covering the hCA-IX ECD (Homo sapiens, UniProt Q16790); format: binding; parameters: key: −, no binding; +, binding
# T3 construct: expressed in transfected cells; host or cells: yeast cells (surface display, whole yeast cell ELISA)
# Method: as §1
# [4] = test system: denatured peptides covering the hCA-IX ECD; format: binding, human; parameters: key: −, no binding; +, binding
# Method: as §1
# [5] = biological target: T4, denatured peptides covering the hCA-IX ECD (Homo sapiens, UniProt Q16790); format: binding; parameters: key: −, no binding; +, binding
# T4 construct: expressed in transfected cells; host or cells: yeast cells (surface display, whole yeast cell ELISA)
# Method: as §1
# [6] = test system: native peptides covering the hCA-IX ECD; format: binding, human; parameters: key: −, no binding; +, binding
# Method: as §1
# [7] = PNL6 Aga2-HA-CA9-MYC, clone 1A, fragment 1, aa 53-111, PG
# [8] = PNL6 Aga2-HA-CA9-MYC, clone 4A, fragment 4, aa 135-391, CA
# [9] = PNL6 Aga2-HA-CA9-MYC, clone 5A, fragment 5, aa 112-391, +CA
# [10] = PNL6 Aga2-HA-CA9-MYC, clone 6B, fragment 6, aa 135-414, CA+
# [11] = PNL6 Aga2-HA-CA9-MYC, clone 7B, fragment 7, aa 112-414, +CA+
# [12] = PNL200 CA9-Aga2-MYC, clone 12B, fragment 1, aa 53-111, PG
# [13] = PNL200 CA9-Aga2-MYC, clone 15B, fragment 4, aa 135-391, CA
# [14] = PNL200 CA9-Aga2-MYC, clone 16B, fragment 5, aa 112-391, +CA
# [15] = PNL200 CA9-Aga2-MYC, clone 17B, fragment 6, aa 135-414, CA+
# [16] = PNL200 CA9-Aga2-MYC, clone 18A, fragment 7, aa 112-414, +CA+
# [17] = PNL6 Aga2-HA-CA9-MYC, clone 3A, fragment 3, aa 1-136, SP+PG+
# [18] = PNL6 Aga2-HA-X-MYC, clone 11B, Plasmid Ctrl, Neg Ctrl
# [19] = PNL6 series, EBY100, no plasmid, Strain Ctrl, Neg Ctrl
# [20] = PNL200 CA9-Aga2-MYC, clone 14A, fragment 3, aa 1-136, SP+PG+
# [21] = PNL200 X-Aga2-MYC, clone 22A, Plasmid Ctrl, Neg Ctrl
# [22] = PNL200 series, EBY100, no plasmid, Strain Ctrl, Neg Ctrl
# T1 sequence (Q8VHB5 32-437): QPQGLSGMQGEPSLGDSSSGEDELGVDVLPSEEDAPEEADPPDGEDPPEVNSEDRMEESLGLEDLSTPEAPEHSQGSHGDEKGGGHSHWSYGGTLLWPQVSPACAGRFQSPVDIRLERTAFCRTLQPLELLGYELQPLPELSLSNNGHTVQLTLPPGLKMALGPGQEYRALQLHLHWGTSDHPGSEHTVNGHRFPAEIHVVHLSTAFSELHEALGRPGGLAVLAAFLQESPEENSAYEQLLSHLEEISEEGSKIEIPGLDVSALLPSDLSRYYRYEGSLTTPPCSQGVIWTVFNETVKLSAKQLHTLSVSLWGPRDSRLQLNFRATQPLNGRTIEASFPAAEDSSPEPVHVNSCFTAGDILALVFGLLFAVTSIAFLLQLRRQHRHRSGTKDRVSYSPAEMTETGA
molecule,measurement,setting,value
"c12H8: chimeric 12H8, human kappa1 light chain and human IgG1 heavy chain; SEQ ID NO:29 and 30 (protein, Chimeric 12H8 Light Chain; Chimeric 12H8 Heavy chain) light: DVVMTQTPLTLSVTIGQPASISCKSSQSLLDSDGKTYLNWLLQRPGQSPKRLIYLVSKLDSGVPDRFTGSGSGTDFTLKISRVEAEDLGVYYCCQGTHFPWTFGGGTKLEIKRTVAAPSVFIFPPSDEQLKSGTASVVCLLNNFYPREAKVQWKVDNALQSGNSQESVTEQDSKDSTYSLSSTLTLSKADYEKHKVYACEVTHQGLSSPVTKSFNRGEC heavy: QIQLVQSGPELKKPGETVKISCKASGYTFTNYGMNWVQQAPGKGLKWMGWINTYTGEPTYADDFKGRFAFSLETSASTAYLQINNLKNEDMATYFCARGGIATPTSYWGQGTTLTVSS[letters of human IgG1 constant region omitted]",binding to rmCA-IX,rmCA-IX,no binding was detected
same,Anti-hCA-IX antibody binding intensity,[1],−
same,Anti-hCA-IX antibody binding intensity,"[2]; fragment 2, 15 aa, aa 47-61",−
same,Anti-hCA-IX antibody binding intensity,"[2]; fragment 3, 15 aa, aa 57-71",−
same,Anti-hCA-IX antibody binding intensity,"[2]; fragment 4, 15 aa, aa 67-81",−
same,Anti-hCA-IX antibody binding intensity,"[2]; fragment 5, 15 aa, aa 77-91",−
same,Anti-hCA-IX antibody binding intensity,"[2]; fragment 6, 15 aa, aa 87-101",−
same,Anti-hCA-IX antibody binding intensity,"[2]; fragment 7, 15 aa, aa 97-111",−
same,Anti-hCA-IX antibody binding intensity,"[2]; fragment 8, 15 aa, aa 107-121",−
same,Anti-hCA-IX antibody binding intensity,"[2]; fragment 9, 15 aa, aa 117-131",−
same,Anti-hCA-IX antibody binding intensity,"[2]; fragment 10, 15 aa, aa 126-140",−
same,Anti-hCA-IX antibody binding intensity,"[2]; fragment 12, 45 aa, aa 67-111",−
same,Anti-hCA-IX antibody binding intensity,"[2]; fragment 13, 34 aa, aa 107-140",−
same,Anti-hCA-IX antibody binding intensity,[3]; [7],−
same,Anti-hCA-IX antibody binding intensity,[3]; [8],−
same,Anti-hCA-IX antibody binding intensity,[3]; [9],−
same,Anti-hCA-IX antibody binding intensity,[3]; [10],−
same,Anti-hCA-IX antibody binding intensity,[3]; [11],−
same,Anti-hCA-IX antibody binding intensity,[3]; [12],−
same,Anti-hCA-IX antibody binding intensity,[3]; [13],−
same,Anti-hCA-IX antibody binding intensity,[3]; [14],−
same,Anti-hCA-IX antibody binding intensity,[3]; [15],−
same,Anti-hCA-IX antibody binding intensity,[3]; [16],−
same,Anti-hCA-IX antibody binding intensity,[4]; [17],+
same,Anti-hCA-IX antibody binding intensity,[4]; [18],−
same,Anti-hCA-IX antibody binding intensity,[4]; [19],−
same,Anti-hCA-IX antibody binding intensity,[4]; [20],−
same,Anti-hCA-IX antibody binding intensity,[4]; [21],−
same,Anti-hCA-IX antibody binding intensity,[4]; [22],−
same,Anti-hCA-IX antibody binding intensity,[5]; [7],+
same,Anti-hCA-IX antibody binding intensity,[5]; [8],−
same,Anti-hCA-IX antibody binding intensity,[5]; [9],−
same,Anti-hCA-IX antibody binding intensity,[5]; [10],−
same,Anti-hCA-IX antibody binding intensity,[5]; [11],−
same,Anti-hCA-IX antibody binding intensity,[5]; [12],−
same,Anti-hCA-IX antibody binding intensity,[5]; [13],−
same,Anti-hCA-IX antibody binding intensity,[5]; [14],−
same,Anti-hCA-IX antibody binding intensity,[5]; [15],−
same,Anti-hCA-IX antibody binding intensity,[5]; [16],−
same,Anti-hCA-IX antibody binding intensity,[6]; [17],+
same,Anti-hCA-IX antibody binding intensity,[6]; [18],−
same,Anti-hCA-IX antibody binding intensity,[6]; [19],−
same,Anti-hCA-IX antibody binding intensity,[6]; [20],+
same,Anti-hCA-IX antibody binding intensity,[6]; [21],−
same,Anti-hCA-IX antibody binding intensity,[6]; [22],−

# Source: patent publication US10487153B2, “Carbonic anhydrase IX-specific antibodies and uses thereof” (National Research Council of Canada, priority 2015, dated 2019)
